In PubChem BioAssay AID1476 (National Center for Advancing Translational Sciences (NCATS), 2009):
Hit rate of the full screen: of about 200,000 compounds, about 4,500 (2.2%) were called active. Inconclusive means that the source gave no clear call. Such entries were picked first, then a sample of the others. Calls come from the whole dose curve; as a rule, active = well fitted inhibition curve with a large enough effect; inconclusive = small, poorly fitted or top-dose-only effect, or effect the other way; inactive = flat fitted curve, though single readings scatter. Potencies beside an inconclusive call are fits to weak or partial responses and may not hold up.

Target: Cruzipain (Trypanosoma cruzi) (UniProt P25779)
Assay: qHTS Assay for Promiscuous and Specific Inhibitors of Cruzain (without detergent); note: nearly all actives have a fitted effect of over 40% in size;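 for max response, negative = inhibition: plate controls were enzyme without inhibitor for no effect and buffer without enzyme for full effect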
Details: purified cruzain, Z-FR-AMC fluorescence, no detergent
How it was run: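 Purified cruzain at 1.5 nM, pre-incubated 15 min with compound at room temperature in 100 mM sodium acetate pH 5.5, 5 mM DTT, 0.00005% Triton X-100. Reaction started with 2 uM Z-FR-AMC; AMC fluorescence increase over 60 s gives rate.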
Potency is the fitted concentration of half-maximal effect; tags give direction and shape of the fitted curve.

Chain of UniProt P25779 (P25779 whole entry, looked up): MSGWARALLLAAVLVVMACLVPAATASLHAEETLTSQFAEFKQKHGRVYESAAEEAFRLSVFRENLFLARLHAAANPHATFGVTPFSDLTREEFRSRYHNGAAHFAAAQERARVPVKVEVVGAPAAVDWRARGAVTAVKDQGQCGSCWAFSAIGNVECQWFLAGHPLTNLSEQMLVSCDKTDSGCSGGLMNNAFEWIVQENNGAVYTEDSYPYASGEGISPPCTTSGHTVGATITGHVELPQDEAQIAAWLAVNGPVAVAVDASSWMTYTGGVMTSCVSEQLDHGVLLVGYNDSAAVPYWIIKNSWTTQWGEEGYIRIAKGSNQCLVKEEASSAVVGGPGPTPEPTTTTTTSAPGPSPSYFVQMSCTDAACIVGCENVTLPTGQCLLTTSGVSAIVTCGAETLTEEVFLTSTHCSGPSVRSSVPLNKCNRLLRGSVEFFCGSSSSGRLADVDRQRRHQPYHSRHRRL

Structure (SMILES)	Potency	max response, negative = inhibition
C/C(=N\Nc1nc(-c2ccccc2)cs1)c1cccs1	active: 7.94 µM	
O=P(c1ccccc1)(c1ccccc1)N(c1ccccc1)c1ccccc1	inconclusive: 31.6 µM [inhibitor, single point]	
O=C(Nn1c(SCc2ccc([N+](=O)[O-])cc2)nc2ccccc2c1=O)c1ccc(F)cc1	active: 10 µM	
N#Cc1c(NC(=O)CSc2ncc(-c3ccccc3)n2CC2CCCO2)sc2c1CCCC2 (centres undefined)	inconclusive: 39.8 µM [inhibitor, single point]	
CC1CCN(S(=O)(=O)c2ccc(S(=O)(=O)NCc3ccccc3)cc2)CC1	active: 15.8 µM	
CC1C(=O)N2CCCc3cc(S(=O)(=O)Nc4ccc(Br)cc4F)cc1c32 (centres undefined)		inactive: 23.8%
CCC1=C(OC(=O)N(CC)CC)N2C(=O)OC(=NCC3CC3)[C@]2(C)[C@H]2C1=CC[C@H]1C(=O)N(C)C(=O)[C@H]12	inconclusive: 39.8 µM [activator, single point]	
COc1cccc(-c2cc(C(=O)Nc3ccc(F)cc3)[nH]n2)c1	inconclusive: 39.8 µM [inhibitor, single point]	
Cc1ccc(S(=O)(=O)NNC(=O)Nc2ccc(Cl)cc2)cc1	inconclusive: 31.6 µM [inhibitor, single point]	
Cn1c(C(=O)N2CCN(C(=O)c3ccco3)CC2)cc2c(=O)n3ccccc3nc21	inconclusive: 3.98 µM [activator, partial curve, poor fit]	
O=C(Nc1cccc(C(F)(F)F)c1)N1CCN(C(=O)Nc2cccc(C(F)(F)F)c2)CC1	inconclusive: 39.8 µM [inhibitor, single point]	
CCn1c(SCC(=O)NCc2ccco2)nc2c(c1=O)SC(C)C2 (centres undefined)		inactive: -23.6%
Cc1ccccc1COc1ccc(/C(O)=C2/C(=O)C(=O)N(CCCn3ccnc3)C2c2ccco2)cc1 (centres undefined)	inconclusive: 39.8 µM [activator, single point]	
CCOC(=O)CNc1ncnc2c1nnn2C		inactive: -0.808%
Cc1ccc(C)c(NC(=O)C(Sc2nc3ccc(C)cc3[nH]2)c2ccccc2)c1 (centres undefined)	inconclusive: 25.1 µM [inhibitor, single point]	
COc1ccc(CNc2ncncc2-c2cccc(NS(C)(=O)=O)c2)c(OC)c1		inactive: 1.03%
CC(=O)Nc1nc(NC(C)=O)c2[nH]c(CO)nc2n1		inactive: 7.78%
CCOc1ccc(C(=O)Nc2ccc(-c3nc4ccccc4[nH]3)cc2)cc1[N+](=O)[O-]	inconclusive: 31.6 µM [inhibitor, single point]	
Cc1cccc(NC2=C(Cl)C(=O)OC2NC(=O)c2ccccc2)c1 (centres undefined)	inconclusive: 6.31 µM [inhibitor, single point]	
Cc1ccc(S(=O)(=O)NCCOCCNS(=O)(=O)c2ccc(C)cc2)cc1		inactive: 4.28%
COCCOC(=O)c1c(C)n(C)c2ccc(OC(=O)c3cccs3)cc12	inconclusive: 31.6 µM [activator, single point]	
Cc1cc(C)cc(OCCSc2nc(-c3ccc(C(C)(C)C)cc3)nc3cc(=O)[nH]n23)c1	inconclusive: 3.16 µM [inhibitor, full curve]	

Structure (SMILES)	Potency	max response, negative = inhibition
Cn1c(CSCc2ccc(Cl)cc2)nnc1SCC(=O)Nc1nc2ccccc2s1	inconclusive: 39.8 µM [inhibitor, single point]	
CC(C)(C)c1ccc(COC(=O)Nc2ccc(F)cc2)cc1	inconclusive: 31.6 µM [inhibitor, single point]	
Cc1cc(C)n(-c2cc(N3CCN(S(=O)(=O)c4ccc5ccccc5c4)CC3)ccc2[N+](=O)[O-])n1	inconclusive: 25.1 µM [inhibitor, single point]	
CC(C)(C)OC(=O)N1CCC(c2c(C(=O)N3CCN(c4ccccc4F)CC3)cnn2C(C)(C)C)CC1	inconclusive: 12.6 µM [activator, partial curve]	
CC1CN(CC(=O)Nc2ccccc2Sc2ccccc2)CC(C)O1 (centres undefined)	inconclusive: 39.8 µM [activator, single point]	
Cc1cccc(-c2nc3c4ccccc4n(CC(=O)Nc4cccc(F)c4)c(=O)n3n2)c1		inactive: -0.0359%
COc1ccc(OC)c(NC(=O)c2ccc3c(=O)n(CCc4ccccc4)c(=S)[nH]c3c2)c1	active: 10 µM	
CCOC(=O)c1c(NC(=O)Cc2cccs2)sc(C(=O)NC2CCCCC2)c1C	inconclusive: 39.8 µM [inhibitor, single point]	
COc1cc(NC(=O)CN(C)S(=O)(=O)c2ccc3c(c2)CCCC(=O)N3)cc(OC)c1OC		inactive: -7.2%
CCc1nn2c(=O)cc(COC(=O)c3cccc(NC(=O)COc4ccccc4F)c3)nc2s1		inactive: 15.3%
COc1ccc(Br)cc1/C=c1\sc2nc(-c3ccco3)nn2c1=O	inconclusive: 31.6 µM [activator, single point]	
COc1c(Br)cc2c(C)c(C(=O)N3CCOCC3)oc2c1Br	inconclusive: 39.8 µM [activator, single point]	
CCc1nnc(SC(CC)C(=O)NCCOC)c2cc3occc3n12 (centres undefined)	inconclusive: 39.8 µM [activator, single point]	
CCc1cccc(NC(=O)Cn2c(=O)n(Cc3ccccc3)c(=O)c3c(C)c(C(=O)N(C)C)sc32)c1	inconclusive: 39.8 µM [activator, single point]	
CC1(C)Cc2c(ccc3ccccc23)C(c2cc3ccccc3oc2=O)=N1		inactive: 0.782%
CC(C)c1ccc2[nH]c(O)c(N=NC(=S)NCCc3ccccc3)c2c1	inconclusive: 25.1 µM [inhibitor, single point]	
Cc1ccc2cc(C(c3nnnn3C3CCCC3)N(Cc3ccccc3)Cc3ccco3)c(=O)[nH]c2c1 (centres undefined)	inconclusive: 39.8 µM [inhibitor, single point]	
O=C(O)C(C(=O)O)P(=S)(S)c1ccccc1 (centres undefined)		inactive: -4.72%
O=C(Cn1c2ncccc2c(=O)n1-c1ccccc1)Nc1cccc(C(F)(F)F)c1	inconclusive: 31.6 µM [inhibitor, single point]	
COc1ccc(-c2cc(C(C)=O)c(C)n2CCC(=O)Nc2cccc(C)c2C)cc1		inactive: -1.39%
CCc1ccc2oc(C(=O)N(Cc3cccc(Cl)c3)Cc3ccco3)c(C)c2c1	inconclusive: 39.8 µM [inhibitor, single point]	
COc1cccc(CNC(=O)CCCn2c(=O)c3cccn3c3ccc(F)cc32)c1OC		inactive: 0.747%

Structure (SMILES)	Potency	max response, negative = inhibition
CCOc1ccc(-c2nc(CSCC(=O)NCCc3ccccc3)c(C)o2)cc1	inconclusive: 15.8 µM [activator, single point]	
Cc1ccc(C(=O)N/C(=C/c2ccc(-c3ccc(Br)cc3)o2)C(=O)NC2CCS(=O)(=O)C2)cc1 (centres undefined)	inconclusive: 12.6 µM [activator, partial curve]	
COc1ccc(N2C(=O)CS(=O)(=O)C23C(=O)N(Cc2ccccc2)c2ccccc23)cc1 (centres undefined)	active: 3.16 µM	
O=[N+]([O-])c1ccc(N2CCN(S(=O)(=O)c3ccc4ccccc4c3)CC2)cc1NCC1CCCO1 (centres undefined)	active: 15.8 µM	
CCOc1ccc(-n2c(=O)c3c(C)c(C)sc3n(Cc3c(F)cccc3Cl)c2=O)cc1		inactive: -2.12%
O=C(CON=C1c2ccccc2-c2ccccc21)NC12CC3CC(CC(C3)C1)C2	inconclusive: 39.8 µM [inhibitor, single point]	
CCOc1cc2[nH]c(=O)n(CCC(=O)N3CCN(c4ccccc4OC)CC3)c(=O)c2cc1OCC	inconclusive: 25.1 µM [activator, partial curve]	
COCCN1Cc2cccc(C(=O)N3CCN(c4cc(C)ccc4C)CC3)c2C1=O	inconclusive: 39.8 µM [activator, single point]	
COc1ccc(Nc2nc(-c3cccs3)cs2)cc1	active: 15.8 µM	
Cc1noc(C)c1COC(=O)c1cc2ccccc2cc1O		inactive: -7.72%
COc1ccc(-n2nc3c(c2NC(=O)C(=O)NCc2ccccc2)CSC3)cc1	active: 7.94 µM	
CCOC(=O)c1[nH]c2c(c1C)C(=O)CC(c1ccc(OCC)c(OC)c1)C2 (centres undefined)	inconclusive: 25.1 µM [activator, single point]	
Cc1ccc(CN2C(=O)CC(c3ccc(Cl)cc3)c3c(C)nn(-c4nc(C)cc(C)n4)c32)cc1 (centres undefined)	inconclusive: 25.1 µM [activator, partial curve]	
Cc1ccc(Cc2cnc(N3C(=N)SC(c4ccccc4)C3=O)s2)cc1 (centres undefined)	inconclusive: 7.94 µM [inhibitor, partial curve]	
CC(C)(C)OC(=O)NCCCCC1=CC2=CC(=O)C(C)(OC(=O)C3CCCC3)C(=O)C2=CO1 (centres undefined)		inactive: 2.37%
COc1ccc(N(C(=O)c2cccnc2)S(=O)(=O)c2ccc3c(c2)n(C)c(=O)n3C)cc1	inconclusive: 15.8 µM [activator, single point]	
COc1c(N2CCNC(C)C2)c(F)cc2c(=O)c(C(=O)O)cn(C3CC3)c12 (centres undefined)	inconclusive: 25.1 µM [inhibitor, single point]	
CC1CCCN(S(=O)(=O)c2ccc(C(=O)Nc3ccccc3-c3nc4ccccc4[nH]3)cc2)C1 (centres undefined)	inconclusive: 5.01 µM [inhibitor, full curve, poor fit]	
CC(=O)Nc1c(C)nn(-c2ccccc2)c1N1CCC(C(=O)Nc2ccc(Cl)cc2C)CC1	inconclusive: 31.6 µM [activator, single point]	
Cc1cccc(C)c1N(CC(=O)Nc1cc(Cl)ccc1Oc1ccccc1)S(C)(=O)=O		inactive: -18.6%
